# Measured values: PMC12820563
# This is one part of the list. The list includes weakly bound sequences.
# Biological target: T1, MBP-FoxP3dN (UniProt Q99JB6)
# T1 sequence: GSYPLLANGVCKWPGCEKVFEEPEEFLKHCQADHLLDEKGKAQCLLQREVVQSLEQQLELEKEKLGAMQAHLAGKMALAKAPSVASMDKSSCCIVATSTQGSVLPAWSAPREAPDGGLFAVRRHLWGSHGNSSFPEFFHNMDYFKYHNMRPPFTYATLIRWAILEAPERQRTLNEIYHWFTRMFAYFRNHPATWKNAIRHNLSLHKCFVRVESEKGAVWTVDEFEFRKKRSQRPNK
# Experiment: PD-seq (MBP pull-down with sequencing)
# Settings: 20 mM Tris-HCl pH 7.5, 100 mM NaCl, 1.5 mM MgCl2, 0.4 uM protein, 0.1 uM dsDNA library, 30 min, room temperature, amylose pull-down; high values mean tight binding; double strand, one strand shown
row,Sequence,binding signal (RPM ratio (pull-down/input))
1,GATGATTGTTCTCCCAGCTGATGAATTATACCCGTCGAGTAAACAAATTTTCCTAATCTTTCTGTTCAAGCGCCATCTAC,0.302
2,GATGATTGTTCTCCCAGCTGATGAATTGCAGCCATCGAGTAAACAAATTTTCCTAATCTTTCTGTTCAAGCGCCATCTAC,1.97
3,GATGATTGTTCTCCCAGCTGATGAATTCTATACATCGAGTAAACAAATTTTCCTAATCTTTCTGTTCAAGCGCCATCTAC,0.559
4,GATGATTGTTCTCCCAGCTGATGAATTCTCGTCCTCGAGTAAACAAATTTTCCTAATCTTTCTGTTCAAGCGCCATCTAC,0.286
5,GATGATTGTTCTCCCAGCTGATGAATTTAACCTATCGAGTAAACAAATTTTCCTAATCTTTCTGTTCAAGCGCCATCTAC,0.345
6,GATGATTGTTCTCCCAGCTGATGAATTGAGAACCTCGAGTAAACAAATTTTCCTAATCTTTCTGTTCAAGCGCCATCTAC,0.261
7,GATGATTGTTCTCCCAGCTGATGAATTATTATGATCGAGTAAACAAATTTTCCTAATCTTTCTGTTCAAGCGCCATCTAC,1.24
8,GATGATTGTTCTCCCAGCTGATGAATTGGGTACCTCGAGTAAACAAATTTTCCTAATCTTTCTGTTCAAGCGCCATCTAC,0.484
9,GATGATTGTTCTCCCAGCTGATGAATTGTCGGATTCGAGTAAACAAATTTTCCTAATCTTTCTGTTCAAGCGCCATCTAC,0.308
10,GATGATTGTTCTCCCAGCTGATGAATTGTTAGTTTCGAGTAAACAAATTTTCCTAATCTTTCTGTTCAAGCGCCATCTAC,4.23
11,GATGATTGTTCTCCCAGCTGATGAATTCGTGTGCTCGAGTAAACAAATTTTCCTAATCTTTCTGTTCAAGCGCCATCTAC,1.35
12,GATGATTGTTCTCCCAGCTGATGAATTTCGCCTATCGAGTAAACAAATTTTCCTAATCTTTCTGTTCAAGCGCCATCTAC,2.53
13,GATGATTGTTCTCCCAGCTGATGAATTTCAATAGTCGAGTAAACAAATTTTCCTAATCTTTCTGTTCAAGCGCCATCTAC,0.581
14,GATGATTGTTCTCCCAGCTGATGAATTCCAAACCTCGAGTAAACAAATTTTCCTAATCTTTCTGTTCAAGCGCCATCTAC,0.274
15,GATGATTGTTCTCCCAGCTGATGAATTAGGCAAATCGAGTAAACAAATTTTCCTAATCTTTCTGTTCAAGCGCCATCTAC,0.601
16,GATGATTGTTCTCCCAGCTGATGAATTGATCGGCTCGAGTAAACAAATTTTCCTAATCTTTCTGTTCAAGCGCCATCTAC,0.212

row,Sequence,binding signal (RPM ratio (pull-down/input))
1,GATGATTGTTCTCCCAGCTGATGAATTATGTAAATCGAGTAAACAAATTTTCCTAATCTTTCTGTTCAAGCGCCATCTAC,0.88
2,GATGATTGTTCTCCCAGCTGATGAATTAGACAACTCGAGTAAACAAATTTTCCTAATCTTTCTGTTCAAGCGCCATCTAC,0.585
3,GATGATTGTTCTCCCAGCTGATGAATTGCAACGGTCGAGTAAACAAATTTTCCTAATCTTTCTGTTCAAGCGCCATCTAC,0.994
4,GATGATTGTTCTCCCAGCTGATGAATTTGCCCAATCGAGTAAACAAATTTTCCTAATCTTTCTGTTCAAGCGCCATCTAC,0.469
5,GATGATTGTTCTCCCAGCTGATGAATTGACCAATTCGAGTAAACAAATTTTCCTAATCTTTCTGTTCAAGCGCCATCTAC,0.351
6,GATGATTGTTCTCCCAGCTGATGAATTTTATAAGTCGAGTAAACAAATTTTCCTAATCTTTCTGTTCAAGCGCCATCTAC,0.377
7,GATGATTGTTCTCCCAGCTGATGAATTAAGTTCTTCGAGTAAACAAATTTTCCTAATCTTTCTGTTCAAGCGCCATCTAC,0.522
8,GATGATTGTTCTCCCAGCTGATGAATTTTCCTGGTCGAGTAAACAAATTTTCCTAATCTTTCTGTTCAAGCGCCATCTAC,0.168
9,GATGATTGTTCTCCCAGCTGATGAATTGCTATGCTCGAGTAAACAAATTTTCCTAATCTTTCTGTTCAAGCGCCATCTAC,0.857
10,GATGATTGTTCTCCCAGCTGATGAATTTTAAATGTCGAGTAAACAAATTTTCCTAATCTTTCTGTTCAAGCGCCATCTAC,0.398
11,GATGATTGTTCTCCCAGCTGATGAATTTTTCCAGTCGAGTAAACAAATTTTCCTAATCTTTCTGTTCAAGCGCCATCTAC,0.201
12,GATGATTGTTCTCCCAGCTGATGAATTGCATTAGTCGAGTAAACAAATTTTCCTAATCTTTCTGTTCAAGCGCCATCTAC,2.07
13,GATGATTGTTCTCCCAGCTGATGAATTCGCTGCGTCGAGTAAACAAATTTTCCTAATCTTTCTGTTCAAGCGCCATCTAC,0.611
14,GATGATTGTTCTCCCAGCTGATGAATTAGGACAATCGAGTAAACAAATTTTCCTAATCTTTCTGTTCAAGCGCCATCTAC,0.401
15,GATGATTGTTCTCCCAGCTGATGAATTACCCATTTCGAGTAAACAAATTTTCCTAATCTTTCTGTTCAAGCGCCATCTAC,0.338
16,GATGATTGTTCTCCCAGCTGATGAATTATCGTTTTCGAGTAAACAAATTTTCCTAATCTTTCTGTTCAAGCGCCATCTAC,0.703
